The target of this assay is endogenous cyclin B1 (293T cells) (human (endogenous in 293T)), P14635. As to the kind of experiment: co-IP. The settings on record: remark: other sources report otherwise.

These are yes or no findings as the source states them, for the method shown. In cells and extracts the contact can be indirect. Some binding calls cover weakened binding; strength is not graded here. Where a sequence is shown, tags or fusion partners need not be part of it.

B1: pUL97-Flag, full-length pUL97(1-707), P16788 1-707 (enzyme)
chain: MSSALRSRARSASLGTTTQGWDPPPLRRPSRARRRQWMREAAQAAAQAAVQAAQAAAAQVAQAHVDENEVVDLMADEAGGGVTTLTTLSSVSTTTVLGHATFSACVRSDVMRDGEKEDAASDKENLRRPVVPSTSSRGSAASGDGYHGLRCRETSAMWSFEYDRDGDVTSVRRALFTGGSDPSDSVSGVRGGRKRPLRPPLVSLARTPLCRRRVGGVDAVLEENDVELRAESQDSAVASGPGRIPQPLSGSSGEESATAVEADSTSHDDVHCTCSNDQIITTSIRGLTCDPRMFLRLTHPELCELSISYLLVYVPKEDDFCHKICYAVDMSDESYRLGQGSFGEVWPLDRYRVVKVARKHSETVLTVWMSGLIRTRAAGEQQQPPSLVGTGVHRGLLTATGCCLLHNVTVHRRFHTDMFHHDQWKLACIDSYRRAFCTLADAIKFLNHQCRVCHFDITPMNVLIDVNPHNPSEIVRAALCDYSLSEPYPDYNERCVAVFQETGTARRIPNCSHRLRECYHPAFRPMPLQKLLICDPHARFPVAGLRRYCMSELSALGNVLGFCLMRLLDRRGLDEVRMGTEALLFKHAGAACRALENGKLTHCSDACLLILAAQMSYGACLLGEHGAALVSHTLRFVEAKMSSCRVRAFRRFYHECSQTMLHEYVRKNVERLLATSDGLYLYNAFRRTTSIICEEDLDGDCRQLFPE
As to B1, the binding entry is “binds”.
